Common to all, as to assay: universal protein binding microarray (PBM)
Holding throughout (conditions): transcription factors of Arabidopsis thaliana; high values mean tight binding; most listed sequences are background and not binding sites; double strand, one strand shown

For assay [1], the target named is T1, GST-ANAC092(1-176) (UniProt Q9FKA0).
T1 sequence: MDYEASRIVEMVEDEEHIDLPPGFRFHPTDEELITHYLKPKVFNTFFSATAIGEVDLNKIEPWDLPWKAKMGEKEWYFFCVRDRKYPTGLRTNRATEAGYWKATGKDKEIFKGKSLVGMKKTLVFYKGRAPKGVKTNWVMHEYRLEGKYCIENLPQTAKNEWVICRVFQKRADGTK

Assay [2] has as its target GST-NTL6(1-168) (UniProt Q9SCK6).
Sequence of UniProt Q9SCK6 (Q9SCK6 1-168): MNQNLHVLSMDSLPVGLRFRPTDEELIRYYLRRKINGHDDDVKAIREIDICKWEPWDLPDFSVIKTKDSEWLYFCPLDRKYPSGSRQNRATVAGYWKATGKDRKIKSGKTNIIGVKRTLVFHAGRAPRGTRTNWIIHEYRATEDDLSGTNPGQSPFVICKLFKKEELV
In assay [3] the target is T2, GST-ANAC019 NAC domain (UniProt Q9C932).
T2 sequence: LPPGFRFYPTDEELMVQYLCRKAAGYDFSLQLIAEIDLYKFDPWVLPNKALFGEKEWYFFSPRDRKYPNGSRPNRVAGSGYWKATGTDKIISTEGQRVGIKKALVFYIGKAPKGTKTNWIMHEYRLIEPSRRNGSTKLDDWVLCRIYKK

The target in assay [4] is T3, GST-ANAC055(1-171) (UniProt Q9LDY8).
T3 sequence: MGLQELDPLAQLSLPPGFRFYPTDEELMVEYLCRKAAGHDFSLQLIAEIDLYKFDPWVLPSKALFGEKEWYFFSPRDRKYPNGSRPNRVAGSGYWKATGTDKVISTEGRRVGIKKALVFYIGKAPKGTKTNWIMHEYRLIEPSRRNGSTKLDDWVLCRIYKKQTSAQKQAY

The target of assay [5] is T4, GST-ATAF1 NAC domain (UniProt Q39013).
T4 sequence: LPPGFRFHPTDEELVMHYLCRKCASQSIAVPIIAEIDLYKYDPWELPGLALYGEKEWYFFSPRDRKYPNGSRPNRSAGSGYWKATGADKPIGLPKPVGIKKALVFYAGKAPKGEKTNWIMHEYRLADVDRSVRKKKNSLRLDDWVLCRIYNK

For assay [6], the target named is T5, GST-ANAC092(1-285) full length (UniProt Q9FKA0).
T5 sequence: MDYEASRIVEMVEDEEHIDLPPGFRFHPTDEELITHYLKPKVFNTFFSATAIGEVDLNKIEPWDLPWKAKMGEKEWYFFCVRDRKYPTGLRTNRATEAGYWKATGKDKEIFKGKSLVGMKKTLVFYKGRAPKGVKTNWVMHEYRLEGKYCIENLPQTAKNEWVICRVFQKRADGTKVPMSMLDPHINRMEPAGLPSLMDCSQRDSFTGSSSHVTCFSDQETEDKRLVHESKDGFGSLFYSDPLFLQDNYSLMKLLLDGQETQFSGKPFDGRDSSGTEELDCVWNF

Assay [7] has as its target T6, GST-NAP(1-166) (UniProt O49255).
T6 sequence: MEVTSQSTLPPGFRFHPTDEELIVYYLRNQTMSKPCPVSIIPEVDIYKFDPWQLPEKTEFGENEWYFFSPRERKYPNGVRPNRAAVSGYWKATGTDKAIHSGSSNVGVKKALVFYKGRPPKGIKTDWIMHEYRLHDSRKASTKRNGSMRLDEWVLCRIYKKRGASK

The target of assay [8] is T7, GST-NST2(1-184) (UniProt Q9M274).
T7 sequence: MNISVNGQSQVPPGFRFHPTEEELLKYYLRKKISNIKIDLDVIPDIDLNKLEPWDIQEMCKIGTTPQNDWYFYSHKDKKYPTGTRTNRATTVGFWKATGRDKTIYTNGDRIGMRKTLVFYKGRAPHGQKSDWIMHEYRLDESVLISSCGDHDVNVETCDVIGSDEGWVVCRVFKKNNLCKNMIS

For assay [9], the target named is T8, GST-NTL8 NAC domain (UniProt Q9XIN7).
T8 sequence: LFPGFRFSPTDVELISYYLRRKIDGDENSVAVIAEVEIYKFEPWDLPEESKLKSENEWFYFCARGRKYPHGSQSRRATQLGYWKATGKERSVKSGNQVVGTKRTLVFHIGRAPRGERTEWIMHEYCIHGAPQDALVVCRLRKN

The target in assay [10] is T9, GST-SND1(1-203) (UniProt Q9LPI7).
T9 sequence: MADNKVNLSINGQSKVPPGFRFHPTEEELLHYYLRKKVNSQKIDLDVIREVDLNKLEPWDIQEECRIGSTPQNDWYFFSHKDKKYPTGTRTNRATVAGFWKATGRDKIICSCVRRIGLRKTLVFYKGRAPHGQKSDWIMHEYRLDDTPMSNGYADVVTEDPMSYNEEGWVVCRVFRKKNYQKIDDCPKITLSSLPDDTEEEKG

Assay [11] concerns the target T10, GST-VND3 NAC domain (UniProt Q9FH59).
T10 sequence: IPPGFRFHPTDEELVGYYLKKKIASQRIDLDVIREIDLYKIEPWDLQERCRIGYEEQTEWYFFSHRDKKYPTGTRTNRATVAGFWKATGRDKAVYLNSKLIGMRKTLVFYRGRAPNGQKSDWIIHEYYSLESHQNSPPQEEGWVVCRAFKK

For assay [12], the target named is T11, GST-VND7 NAC domain (UniProt Q9C8W9).
T11 sequence: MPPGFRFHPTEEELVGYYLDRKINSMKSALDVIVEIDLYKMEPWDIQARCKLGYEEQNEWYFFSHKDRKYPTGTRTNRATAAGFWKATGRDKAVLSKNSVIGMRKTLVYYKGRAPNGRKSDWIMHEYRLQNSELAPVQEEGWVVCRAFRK

Assay [13] has as its target T12, GST-VOZ2 (Arabidopsis thaliana) (UniProt Q9SLB9).
T12 sequence: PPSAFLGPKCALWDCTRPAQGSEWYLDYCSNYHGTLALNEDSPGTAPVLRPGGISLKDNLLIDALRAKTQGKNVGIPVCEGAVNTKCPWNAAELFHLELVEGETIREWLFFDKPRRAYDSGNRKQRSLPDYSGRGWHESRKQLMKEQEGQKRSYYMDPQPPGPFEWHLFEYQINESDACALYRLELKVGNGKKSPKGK

The list shows a part of the results, in another mix than the full data. For some assays here: At the low end of the ranking the order means little. The list shows a part of the results. For some assays here: The exact form of the protein is not confirmed.

On to CGGTCAAG, for which the binding signal in [1] was -0.0274 E-score; in [2] it was -0.0513 E-score; in assay [3], -0.0324 E-score; in assay [4] it was -0.152 E-score; in assay [5], -0.276 E-score; in [6], -0.0599 E-score. The binding signal in [7] is -0.0583 E-score; in assay [8] it was -0.0889 E-score; in assay [9], -0.0426 E-score; in assay [10] it was -0.0925 E-score; in assay [11], -0.204 E-score; in assay [12] it was -0.171 E-score. Moreover, the binding signal in assay [13] is -0.0724 E-score.
Take GTCAGCGA: the binding signal was -0.0258 E-score in [1]; -0.0371 E-score in assay [2]; -0.0642 E-score in assay [3]; -0.0986 E-score in assay [4]; -0.0785 E-score in [5]; -0.141 E-score in assay [6]. For the same sequence, the binding signal is -0.0183 E-score in [7]; -0.0188 E-score in assay [8]; -0.0133 E-score in assay [9]; -0.0963 E-score in assay [10]; -0.105 E-score in assay [11]; -0.135 E-score in [12]. Moreover, the binding signal in assay [13] is 0.0285 E-score.
For the sequence AAGTCCAC, the binding signal in [1] was -0.0394 E-score; in assay [2] it was -0.0748 E-score; in assay [3] it was -0.0278 E-score; in assay [4] it was -0.0456 E-score; in assay [5], -0.0728 E-score; in assay [6] it was -0.12 E-score. The binding signal in assay [7] is -0.0155 E-score; in [8], 0.0239 E-score; in assay [9], 0.00945 E-score; in assay [10] it was -0.0368 E-score; in assay [11], -0.148 E-score; in assay [12] it was -0.0776 E-score. The binding signal in assay [13] is -0.112 E-score.
As to GCTTTGAC, the binding signal in assay [1] is -0.0509 E-score; in assay [2] it was -0.093 E-score; in assay [3], -0.0353 E-score; in [4], -0.0701 E-score; in [5] it was -0.0279 E-score; in assay [6], -0.0731 E-score. In addition, the binding signal was -0.103 E-score in [7]; -0.0426 E-score in assay [8]; -0.00153 E-score in assay [9]; 0.00287 E-score in assay [10]; -0.0568 E-score in assay [11]; -0.13 E-score in assay [12]. In addition, the binding signal in assay [13] was -0.0306 E-score.
In the case of CTCGGTCA, the binding signal in [1] was -0.021 E-score; in assay [2], -0.109 E-score; in assay [3], 0.0124 E-score; in [4] it was -0.0275 E-score; in assay [5], -0.133 E-score; in assay [6], -0.0298 E-score. In addition, the binding signal is -0.0291 E-score in assay [7]; -0.0683 E-score in assay [8]; -0.0723 E-score in assay [10]; -0.00771 E-score in assay [11]; -0.0712 E-score in [12]; -0.00058 E-score in assay [13].
Turning to CAGGGTCA, the binding signal is -0.0799 E-score in assay [1]; -0.125 E-score in assay [2]; -0.129 E-score in assay [3]; -0.182 E-score in assay [4]; -0.164 E-score in assay [5]; -0.0728 E-score in assay [6]. In addition, the binding signal in assay [7] was -0.0764 E-score; in assay [8] it was -0.186 E-score; in [9] it was 0.0102 E-score; in assay [10] it was -0.00298 E-score; in [11], -0.221 E-score; in assay [12], -0.228 E-score. Further, the binding signal in [13] came to 0.00269 E-score.

For the origin of these results see paper PMC4081100.
